Counter-ions that a name gives are not always drawn. ± gives the standard deviation of the averaged measurements. In all, about 3,100 compounds were measured (“mean cytoplasmic OPP incorporation (global translation) relative to DMSO”: median about 100, lowest 2% from about 56 on). This is one part of the list.

The assay has as its system U2OS. Put plainly: mean cytoplasmic OPP incorporation (global translation) relative to DMSO (% of DMSO); higher = more protein synthesis. As to conditions: 10 µM; 24 h. The method, then:
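Primary image-based screen in U2OS cells: compounds at 10 uM for 24 h, then a 1 h o-propargyl-puromycin (OPP) pulse, click labelling, and high-throughput microscopy. Mean cytoplasmic OPP intensity and nuclei count were normalised to DMSO wells within each plate (DMSO = 100) and averaged over triplicate plates.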
`CCC1(c2ccc(N)cc2)CCC(=O)NC1=O` (stereo not given) [Glutethimide, para-amino]: the “mean cytoplasmic OPP incorporation” value was 98.8.
To `CCN(C)C(=O)Oc1cccc([C@H](C)N(C)C)c1` [Rivastigmine] belongs 114; to `CC[C@@]1([C@@H]2O[C@@H]([C@H]3O[C@@](O)(CO)[C@H](C)C[C@@H]3C)C[C@@H]2C)CC[C@H]([C@]2(C)CC[C@]3(C[C@H](O)[C@@H](C)[C@@H]([C@@H](C)[C@@H](OC)[C@H](C)C(=O)O)O3)O2)O1` [Monensin sodium salt], 107; to `CC[C@@]1([C@@H]2O[C@@H]([C@H]3O[C@@](O)(CO)[C@H](C)C[C@@H]3C)C[C@@H]2C)CC[C@H]([C@]2(C)CC[C@]3(C[C@H](O)[C@@H](C)[C@@H]([C@@H](C)[C@@H](OC)[C@H](C)C(=O)O)O3)O2)O1` [Monensin sodium salt (Coban)], 103.
Take `C[C@@H]1O[C@@H](O[C@H]2C[C@@H](O)[C@]3(CO)[C@H]4[C@H](O)C[C@]5(C)[C@@H](C6=CC(=O)OC6)CC[C@]5(O)[C@@H]4CC[C@]3(O)C2)[C@H](O)[C@H](O)[C@H]1O` [Ouabain]: the “mean cytoplasmic OPP incorporation” value was 47 ± 1.8.
The value for `CN1[C@@H]2CC[C@H]1C[C@@H](OC1c3ccccc3CCc3ccccc31)C2` [Deptropine citrate] was 113; that for `Cc1nc(N)sc1CCN` [Amthamine dihydrobromide] was 107; that for `NCC(O)c1ccc(O)cc1` (racemic) [(+,-)-Octopamine hydrochloride] was 104.
To `CCCOc1ccc2[nH]cc(C3=CCNCC3)c2n1` belongs 103.
The value for `COc1ccc(Cc2nccc3cc(OC)c(OC)cc23)cc1OC` [Papaverine hydrochloride] was 97; that for `CCC1(CC)C(=O)C=CNC1=O` [Pyrithyldione] was 100; that for `C[C@]12CC[C@H]3[C@@H](CC[C@@]45O[C@@H]4C(O)=C(C#N)C[C@]35C)[C@@H]1CC[C@@H]2O` [Trilostane] was 104.
Consider `O=C1CSC(c2ccccc2Cl)c2cc(Cl)ccc2N1` (stereo not given), for which the “mean cytoplasmic OPP incorporation” value came out at 101.
Turning to `C=C(C)[C@H]1Cc2c(ccc3c2O[C@@H]2COc4cc(OC)c(OC)cc4[C@@H]2C3=O)O1` [Rotenone], the “mean cytoplasmic OPP incorporation” value turned out to be 106.
To `COC(=O)C1=CCCN(C)C1` [Arecoline] belongs 102.
Regarding `CC(CN)CC(=O)O` (stereo not given) [3-Methyl-GABA], the “mean cytoplasmic OPP incorporation” value turned out to be 102.
Consider `Fc1ccc(C(OCCN2CCN(CCCc3ccccc3)CC2)c2ccc(F)cc2)cc1`, for which the “mean cytoplasmic OPP incorporation” value was found to be 99.39 ± 0.44.
As for `CC(C)(C)NCC(O)c1cc(Cl)c(N)c(Cl)c1` (stereo not given) [Clenbuterol hydrochloride], the “mean cytoplasmic OPP incorporation” value worked out at 103.
The value for `CC(C)(c1ccc(OCC2CO2)cc1)c1ccc(OCC2CO2)cc1` (stereo not given) was 98.1 ± 1.6; that for `CC(C)N(CCNC(=O)CN1CCCC1=O)C(C)C` [Pramiracetam] was 99.2.

Source of the values: the supplement of paper PMC8183993.
